Measurements published in patent US20250011397A1 (HOSPITAL FOR SICK CHILDREN, published 2025).

Molecular target: T1, SARS-CoV-2 Spike, prefusion S ectodomain (BEI NR52394), His-tagged (SARS-CoV-2)
T1 construct: extracellular domain; also called S protein; S glycoprotein
Test: BLI, His-tagged Spike on Ni-NTA biosensors, 1:1 fit

B1: 4A8 MB (other)
chain 1: EIVMTQSPLSSPVTLGQPASISCRSSQSLVHSDGNTYLSWLQQRPGQPPRLLIYKISNRFSGVPDRFSGSGAGTDFTLKISRVEAEDVGVYYCTQATQFPYTFGQGTKVDIKRTVAAPSVFIFPPSDEQLKSGTASVVCLLNNFYPREAKVQWKVDNALQSGNSQESVTEQDSKDSTYSLSSTLTLSKADYEKHKVYACEVTHQGLSSPVTKSFNRGECGGGGSGGGGSGGGGSGGGGSGGGGSGGGGSGGGGSGGGGSGGGGSGGGGSGGGGSGGGGSGGGGSGGGGSEVQLVESGAEVKKPGASVKVSCKVSGYTLTELSMHWVRQAPGKGLEWMGGFDPEDGETMYAQKFQGRVTMTEDTSTDTAYMELSSLRSEDTAVYYCATSTAVAGTPDLFDYYYGMDVWGQGTTVTVSSASTKGPSVFPLAPSSKSTSGGTAALGCLVKDYFPEPVTVSWNSGALTSGVHTFPAVLQSSGLYSLSSVVTVPSSSLGTQTYICNVNHKPSNTKVDKKVEPKSCGGGGSGGGGSGGGGSGGGGSGGGGSG[about 200 residues not spelt out]
chain 2: [human IgG1 Fc not spelt out]GGGGSGGGGSGGGGSGGGGSGGGGSGGGGSGGGGSGGGGSGGGGSGGGGSGGGGSGGGGSGGGGSGGGGS[human IgG1 Fc not spelt out]GGGGSGGGGSGGGGSGGGGSGGGGSGGSSQIRQNYSTDVEAAVNSLVNLYLQASYTYLSLGFYFDRDDVALEGVSHFFRELAEEKREGYERLLKMQNQRGGRALFQDIKKPAEDEW
chain 3: EIVMTQSPLSSPVTLGQPASISCRSSQSLVHSDGNTYLSWLQQRPGQPPRLLIYKISNRFSGVPDRFSGSGAGTDFTLKISRVEAEDVGVYYCTQATQFPYTFGQGTKVDIKRTVAAPSVFIFPPSDEQLKSGTASVVCLLNNFYPREAKVQWKVDNALQSGNSQESVTEQDSKDSTYSLSSTLTLSKADYEKHKVYACEVTHQGLSSPVTKSFNRGECGGGGSGGGGSGGGGSGGGGSGGGGSGGGGSGGGGSGGGGSGGGGSGGGGSGGGGSGGGGSGGGGSGGGGSEVQLVESGAEVKKPGASVKVSCKVSGYTLTELSMHWVRQAPGKGLEWMGGFDPEDGETMYAQKFQGRVTMTEDTSTDTAYMELSSLRSEDTAVYYCATSTAVAGTPDLFDYYYGMDVWGQGTTVTVSSASTKGPSVFPLAPSSKSTSGGTAALGCLVKDYFPEPVTVSWNSGALTSGVHTFPAVLQSSGLYSLSSVVTVPSSSLGTQTYICNVNHKPSNTKVDKKVEPKSCGGGGSGGGGSGGGGSGGGGSGGGGSGGGKTPDAMKAAMALEKKLNQALLDLHALGSARTDPHLCDFLETHFLDEEVKLIKKMGDHLTNLHRLGGPEAGLGEYLFERLTLRHD
Kd: < 1 pM | koff: < 1e-07 s⁻¹ | kon: 108000 M⁻¹ s⁻¹
